Laboratory results from the CheMixHub viscosity set.
Several values for one entry are separate records, joined by “and”; a condition that tells them apart may be missing. Equal entries are not always repeated. This continues a long series; more values of the same kind are listed elsewhere.

Legend:
[1] = 101 kPa
[2] = xn = mol fraction of the nth substance listed

CCCCn1cc[n+](C)c1.COS(=O)(=O)[O-]
[1]
Conditions	viscosity [mPa·s]
298.15 K	215.2
299.15 K	202.9
301.15 K	181.2
302.15 K	171.4
303.15 K	162.3
304.15 K	156.8
305.15 K	145.7
307.15 K	131.2

CCCCCCCCO + COC(=O)OC
[2], 323.15 K, 100 kPa
Conditions	viscosity [mPa·s]
x2 = 0.1999	2.004
x2 = 0.3	1.581
x2 = 0.3999	1.262
x2 = 0.5	1.023
x2 = 0.6	0.832
x2 = 0.7	0.699
x2 = 0.7999	0.578
x2 = 0.9	0.491

CN1CCCN(C)C1=O + O
viscosity, [2]
Conditions	293.15 K	298.15 K	303.15 K	323.15 K
100 kPa, x1 = 0.007139	1.207 mPa·s	1.066 mPa·s	–	0.639 mPa·s
100 kPa, x1 = 0.01508	1.435 mPa·s	1.267 mPa·s	–	0.776 mPa·s
100 kPa, x1 = 0.0297	–	–	–	0.902 mPa·s
100 kPa, x1 = 0.0568	2.715 mPa·s	2.295 mPa·s	–	1.25 mPa·s
100 kPa, x1 = 0.08573	3.965 mPa·s	3.285 mPa·s	–	1.579 mPa·s
100 kPa, x1 = 0.1227	5.656 mPa·s	4.614 mPa·s	–	2.041 mPa·s
100 kPa, x1 = 0.1461	6.909 mPa·s	5.559 mPa·s	–	2.35 mPa·s
100 kPa, x1 = 0.1745	8.375 mPa·s	6.615 mPa·s	–	2.651 mPa·s
100 kPa, x1 = 0.2062	9.318 mPa·s	7.376 mPa·s	–	2.91 mPa·s
100 kPa, x1 = 0.2453	10.24 mPa·s	8.068 mPa·s	–	3.139 mPa·s
100 kPa, x1 = 0.2961	10.82 mPa·s	8.492 mPa·s	–	3.296 mPa·s
100 kPa, x1 = 0.3486	10.68 mPa·s	8.424 mPa·s	–	3.327 mPa·s
100 kPa, x1 = 0.3968	10.08 mPa·s	7.993 mPa·s	–	3.215 mPa·s
100 kPa, x1 = 0.4616	9.277 mPa·s	7.512 mPa·s	–	3.185 mPa·s
100 kPa, x1 = 0.5081	8.518 mPa·s	6.965 mPa·s	–	3.064 mPa·s
100 kPa, x1 = 0.5809	7.345 mPa·s	6.105 mPa·s	–	2.855 mPa·s
100 kPa, x1 = 0.6498	6.342 mPa·s	5.325 mPa·s	–	2.593 mPa·s
100 kPa, x1 = 0.6917	5.824 mPa·s	4.954 mPa·s	–	2.499 mPa·s
100 kPa, x1 = 0.797	4.745 mPa·s	4.102 mPa·s	–	2.219 mPa·s
100 kPa, x1 = 0.8669	4.17 mPa·s	3.644 mPa·s	–	2.055 mPa·s
100 kPa, x1 = 0.9357	3.761 mPa·s	3.326 mPa·s	–	1.968 mPa·s
100 kPa, x1 = 0.9554	3.604 mPa·s	3.187 mPa·s	–	1.886 mPa·s
100 kPa, x2 = 0.0016	3.278 mPa·s and 3.3 mPa·s	2.917 mPa·s and 2.937 mPa·s	2.609 mPa·s and 2.628 mPa·s	–
100 kPa, x2 = 0.0169	3.401 mPa·s	3.022 mPa·s	2.7 mPa·s	–
101 kPa, x1 = 0.06	–	2.48 mPa·s	–	–
101 kPa, x1 = 0.2	–	7.11 mPa·s	–	–
101 kPa, x1 = 0.304	–	8.44 mPa·s	–	–
101 kPa, x1 = 0.348	–	8.47 mPa·s	–	–
101 kPa, x1 = 0.4	–	8.02 mPa·s	–	–
101 kPa, x1 = 0.487	–	7.06 mPa·s	–	–
101 kPa, x1 = 0.548	–	6.32 mPa·s	–	–
101 kPa, x1 = 0.699	–	4.79 mPa·s	–	–

N[C@@H](Cc1c[nH]cn1)C(=O)O + O
[2], 100 kPa
Conditions	viscosity [mPa·s]
298.15 K, x1 = 0.0011	0.9027
298.15 K, x1 = 0.00145	0.9066
298.15 K, x1 = 0.00177	0.9102
298.15 K, x1 = 0.002209	0.915
303.15 K, x1 = 0.000193	0.7995
303.15 K, x1 = 0.002209	0.8207
308.15 K, x1 = 0.000193	0.7212
308.15 K, x1 = 0.000403	0.7232
308.15 K, x1 = 0.00074	0.7265
308.15 K, x1 = 0.0011	0.73
308.15 K, x1 = 0.00145	0.7334
313.15 K, x1 = 0.000403	0.6569
313.15 K, x1 = 0.00074	0.6601

O=C[C@H](O)[C@@H](O)[C@H](O)[C@H](O)CO + O
[2]
Conditions	viscosity
293.15 K, 100 kPa, x1 = 0.024	1.9 mPa·s
293.15 K, 101 kPa, x1 = 0.001	1.019 mPa·s
293.15 K, 101 kPa, x1 = 0.0018	1.036 mPa·s
293.15 K, 101 kPa, x1 = 0.002	1.043 mPa·s
293.15 K, 101 kPa, x1 = 0.005	1.137 mPa·s
293.15 K, 101 kPa, x1 = 0.011	1.286 mPa·s
298.15 K, 101 kPa, x1 = 0.0002	0.9013 mPa·s
298.15 K, 101 kPa, x1 = 0.00045	0.893 mPa·s
298.15 K, 101 kPa, x1 = 0.0005	0.9169 mPa·s
298.15 K, 101 kPa, x1 = 0.0009	0.895 mPa·s
298.15 K, 101 kPa, x1 = 0.001	0.9634 mPa·s and 0.906 mPa·s
298.15 K, 101 kPa, x1 = 0.0013	0.898 mPa·s
298.15 K, 101 kPa, x1 = 0.0018	0.9874 mPa·s and 0.9 mPa·s and 0.922 mPa·s
298.15 K, 101 kPa, x1 = 0.002	0.9826 mPa·s
298.15 K, 101 kPa, x1 = 0.011	1.154 mPa·s
298.15 K, 101 kPa, x1 = 0.01901	1.517 mPa·s
303.15 K, 100 kPa, x1 = 0.0009	0.819 mPa·s
303.15 K, 100 kPa, x1 = 0.0027	0.853 mPa·s
303.15 K, 100 kPa, x1 = 0.0045	0.887 mPa·s
303.15 K, 100 kPa, x1 = 0.0063	0.9201 mPa·s
303.15 K, 101 kPa, x1 = 0.001	0.814 mPa·s
303.15 K, 101 kPa, x1 = 0.0018	0.828 mPa·s
303.15 K, 101 kPa, x1 = 0.002	0.83 mPa·s
303.15 K, 101 kPa, x1 = 0.005	0.9067 mPa·s
303.15 K, 101 kPa, x1 = 0.011	1.036 mPa·s
308.15 K, 101 kPa, x1 = 0.00045	0.722 mPa·s
308.15 K, 101 kPa, x1 = 0.0009	0.723 mPa·s
308.15 K, 101 kPa, x1 = 0.0013	0.725 mPa·s
308.15 K, 101 kPa, x1 = 0.0018	0.727 mPa·s and 0.748 mPa·s
308.15 K, 101 kPa, x1 = 0.005	0.8176 mPa·s
308.15 K, 101 kPa, x1 = 0.011	0.9311 mPa·s
313.15 K, 100 kPa, x1 = 0.0009	0.6716 mPa·s
313.15 K, 100 kPa, x1 = 0.024	1.15 mPa·s
313.15 K, 101 kPa, x1 = 0.001	0.67 mPa·s
313.15 K, 101 kPa, x1 = 0.0018	0.681 mPa·s
313.15 K, 101 kPa, x1 = 0.002	0.683 mPa·s
313.15 K, 101 kPa, x1 = 0.005	0.7401 mPa·s
313.15 K, 101 kPa, x1 = 0.011	0.8389 mPa·s
318.15 K, 101 kPa, x1 = 0.00045	0.598 mPa·s
318.15 K, 101 kPa, x1 = 0.0009	0.6 mPa·s
318.15 K, 101 kPa, x1 = 0.0013	0.602 mPa·s
318.15 K, 101 kPa, x1 = 0.0018	0.604 mPa·s
318.15 K, 101 kPa, x1 = 0.005	0.6767 mPa·s
318.15 K, 101 kPa, x1 = 0.011	0.7615 mPa·s
